# Source: publication PMC6212790
# The list shows a part of the results. At the low end of the ranking the order means little.
# Biological target: T1, GST-Rok-C97-191 (UniProt O34857)
# T1 sequence: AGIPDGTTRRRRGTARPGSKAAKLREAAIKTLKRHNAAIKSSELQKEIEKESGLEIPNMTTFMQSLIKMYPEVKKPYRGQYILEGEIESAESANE
# Test: protein binding microarray;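 also: rank score from −0.5 (least bound) to 0.5 (best bound)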
# Conditions: Rok is a gene silencer of Bacillus subtilis; high values mean tight binding; most listed sequences are background and not binding sites; double strand, one strand shown
row,Sequence,binding signal [E-score]
1,CGCCGGTA,-0.118
2,AACCACCA,-0.0667
3,AACCATAT,0.183
4,ATCCTCTC,0.0456
5,GCCAATGA,-0.306
6,ATTAGAGG,-0.0651
7,CACAGCTA,0.136
8,ATGCGGTG,-0.19
9,ACTGTTCA,0.0207
10,CCGAAACC,-0.265
11,ATGACTTC,0.0327
12,AAAGAGGG,-0.21
13,AGTTTCGA,0.228
14,CCAGATCA,-0.115
15,ATCATCCC,-0.278
16,CCGTACTA,0.201
17,CAGGCATG,-0.137
18,ACCGCACA,0.00371
19,AAACTGAG,-0.241
20,GGGGGTTA,-0.26
21,ATCAGTTA,0.212
22,TAACCTTA,0.0808

row,Sequence,binding signal [E-score]
1,AAGTATGA,0.179
2,ACGATGCA,-0.109
3,CCCATGAC,-0.0352
4,TGACGGAA,-0.0445
5,CGGTAACG,-0.245
6,AACGTGCG,-0.106
7,CATTAGAA,0.182
8,CGAAACAA,0.0284
9,GACCACAA,-0.0328
10,CTCATGGC,-0.229
11,TCTCCTAA,0.147
12,AATCGGTC,0.0872
13,AGACCTGC,-0.148
14,GGTGACAC,0.0376
15,ATCGGGCA,-0.0679
16,AGCGCTGA,-0.199
17,GGTGGGTA,-0.00366
18,ACAATAAC,0.127
19,GAATTCCC,0.0213
20,GTTTAATA,0.252
21,AGCGTGGA,0.126
22,ACTTGGCC,-0.207

row,Sequence,binding signal [E-score]
1,AGTAGTTC,0.398
2,ACGTAGAG,-0.0363
3,ACCACCCA,-0.0433
4,AAGCATAC,0.0136
5,TCCGTGAA,-0.0258
6,AAAGTATC,0.0933
7,AACAAGTG,0.142
8,CCTGATGC,-0.127
9,ACTCATGG,-0.0782
10,ACGCGGGG,-0.165
11,GCCCAAAA,0.0402
12,CAGGCAAG,-0.182
13,ATTCCGGA,0.185
14,ATATGGTA,0.331
15,CATAGGGC,-0.0843
16,TCACCACA,0.022
17,CAAGCGAG,-0.217
18,AGTCATAA,-0.007
19,AGGCCTTA,-0.156
20,GTAGCAAC,0.311
21,CACAACGC,-0.00345
22,AGTGTGGG,-0.0237

row,Sequence,binding signal [E-score]
1,CAGAGTCA,-0.0794
2,CAATAGCC,-0.0317
3,CTGAGAAG,-0.176
4,ACAGGTAA,0.103
5,CGCCGAGA,-0.149
6,AGGATCAA,-0.0242
7,AATAAACG,0.0612
8,AAGATCAG,0.194
9,CGACTTCC,0.0335
10,GAATTCAC,0.074
11,GCCCGCAC,-0.165
12,AACACTTA,0.0691
13,AAACCCAC,0.0386
14,AGTAGGCA,0.204
15,CACACATG,-0.0804
16,AGAAGAGA,-0.0461
17,CAATGATA,0.204
18,GGAATAGA,0.0515
19,ACGGAGCC,0.0113
20,CAGGCACC,-0.145
